#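 Exposure lasted 48 hours, with cells grown in 96-well plates and compounds tested at five concentrations. At the GI50, growth is halved.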 Activity calls are given as the source filed them. No stated cut-off is given here; in the data, active = GI50 up to about 1.1 µM and inactive = higher.
# Test system: NCI-H322M
# Assay: NCI-60 cell line screen, 48 h
row,SMILES,GI50
1,C/C=C1/CC(C)C(C)(O)C(=O)OCC2C(O)CN3CCC(OC1=O)C23 (centres undefined),inactive: > 100 µM
2,C=Cn1c([N+](=O)[O-])cnc1/C=C/c1ccc(C(=O)OCCN2CCOCC2)cc1,inactive: > 100 µM
3,COc1ccc(C(Cl)=C(c2ccc(OCCN(C)C)cc2)c2ccc(OCCN(C)C)cc2)cc1,inactive: 2.65 µM
4,Cc1ccc(-c2nc(N/N=C/c3ccc(O)cc3)c3ccccc3n2)cc1,inactive: 9.51 µM
5,N#Cc1c(C[n+]2ccccc2)c2ccccc2oc1=O,inactive: > 100 µM
6,CN(CCS(=O)(=O)N1C(=O)C2CCCN2C(=O)[C@@H]1Cc1ccccc1)C(=O)OCc1ccccc1 (some centres undefined),inactive: > 100 µM
7,COC(=O)/C(C#N)=C/c1cc(C(C)(C)C)c(O)c(C(C)(C)C)c1,inactive: 2.99 µM
8,C=CCNC(=O)CN(CC(=O)OC)C1CCCCC1N(CC(=O)OC)CC(=O)OC (centres undefined),inactive: > 100 µM
9,COC(=O)c1ccc(/N=N/N(C)COc2ccc(C#N)cc2)cc1,inactive: > 100 µM
10,COc1ccccc1/C=N/Nc1nnc2c3ccccc3c3ncccc3c2n1,inactive: > 100 µM
11,O=C1OC(=O)C([Se]c2ccccc2)=C1[Se]c1ccccc1,inactive: > 100 µM
12,CCN(CC)CCNC(=O)c1ccccc1NC(=O)C(=O)Nc1ccccc1C(=O)NCCN(CC)CC,inactive: > 100 µM
13,O=[N+]([O-])c1ccc(C(Cl)C(Cl)c2ccc(C(Cl)C(Cl)c3ccc([N+](=O)[O-])cc3[N+](=O)[O-])cc2)c([N+](=O)[O-])c1 (centres undefined),inactive: 27 µM
14,C=C(C)CC(C)(c1cc2ccccc2n1C)N1CCOCC1 (centres undefined),inactive: > 100 µM
15,CN(C)c1ccc(C=C2C(=O)NC(=S)NC2=O)c2ccccc12,inactive: > 100 µM
16,Cc1cc(Nc2ccc(NS(C)(=O)=O)cc2)c2c(ccc3[nH]ccc32)n1,inactive: 12.9 µM
17,COc1cc2c(cc1OCCCCN1CCN(CCCCOc3cc4c(cc3OC)C(=O)N3CCC[C@H]3C=N4)CC1)N=C[C@@H]1CCCN1C2=O,active: 0.132 µM
18,Nc1c(-c2ccccc2[N+](=O)[O-])nc2ccccn12,inactive: > 100 µM
19,COc1ccn(CC(=O)c2cc3ccccc3[nH]2)c(=O)n1,inactive: > 100 µM
20,O=C1C(Cl)C(c2ccccc2O)N1n1cnc2ccccc2c1=O (centres undefined),inactive: 58.3 µM
21,Cc1ccc(S(=O)(=O)Nc2cccc(C)c2C)cc1,inactive: > 100 µM
22,CC[C@@H]1/C=C/C=C/C[C@H](C)[C@@H](O)[C@](C)(O)C(=O)[C@H](C)[C@@H](O)[C@H](C)C(=O)[C@H](C)[C@@H](O)[C@H](C)/C=C/C(=O)O[C@H]2[C@@H](C)[C@@H](CC1)O[C@]1(O[C@H](CC(C)O)[C@H](C)CC1=O)[C@@H]2C (some centres undefined),inactive: 6.56 µM

row,SMILES,GI50
1,C=C1C(=O)CC2C(=O)C(C)(O)CC/C=C(\C)C(=O)CC12 (centres undefined),inactive: > 100 µM
2,Cn1c(=O)c2[nH]c(/N=N\n3ccc4ccccc43)nc2n(C)c1=O,inactive: > 100 µM
3,Cc1c(C(=O)/C=C/c2c(Cl)cccc2Cl)c(=O)n(-c2ccccc2)n1C,inactive: 30.3 µM
4,C/C=N\n1c(C)n[nH]c1=O,inactive: > 100 µM
5,CCOC(=O)CCc1c(C)c2c(OC)cc(OC)cc2oc1=O,inactive: > 100 µM
6,CCOC(=O)C(C)(C)Oc1ccc(/C=C/C(=O)c2ccc(Cl)cc2)cc1,inactive: 47.2 µM
7,Cc1cc(C)c(-c2noc(-c3ccc(Cl)cc3)c2C2=NCCCN2)c(C)c1,inactive: 8.79 µM
8,[O-][Cl+3]([O-])([O-])O.c1ccc(/N=c2\snc(-c3ccccc3)s2)cc1,inactive: > 100 µM
9,C[C@]12CC[C@H]3[C@@H](CCC4=C[C@@H](OC5OCC(OC6OC(CO)C(O)C(O)C6O)C(O)C5O)CC[C@@]43C=O)[C@@]1(O)CCC2C1=CC(=O)OC1 (some centres undefined),active: 0.875 µM
10,CC(=O)Nc1ccc(S(=O)(=O)NN(C)S(=O)(=O)c2ccc(C)cc2)cc1,inactive: > 100 µM
11,COc1cc2c(cc1OC)c1c(OC)c(OC)cc3c1c1c2sc(=S)n1CC3,inactive: 89.1 µM
12,CCOC(=O)/C=C(/C=C\COC1CCCCO1)c1ccccc1 (centres undefined),inactive: 67.1 µM
13,CCOC(=O)Nc1ccc(S(=O)(=O)OC)cc1.CCOC(=O)Nc1ccc(S(=O)(=O)OC)cc1.NNC(=O)c1ccncc1,inactive: > 50 µM
14,CC(=O)C1C(=O)C(=O)N(c2ccc([N+](=O)[O-])cc2Cl)C1=O (centres undefined),inactive: > 100 µM
15,CCCCc1ccc(Nc2nc3ncnc-3c[nH]2)cc1,inactive: > 100 µM
16,Cc1ncc([N+](=O)[O-])n1CCNC(=O)CCCn1cnc([N+](=O)[O-])n1,inactive: > 100 µM
17,COc1cc(/C=C/c2cccnc2)cc(OC)c1OC,inactive: > 100 µM
18,COc1ccc(OC)c2[nH]c(Sc3c([N+](=O)[O-])ncn3C)nc12,inactive: 31.3 µM
19,CC1CC[C@@]2(OC1)OC1CC3C4CCC5C[C@@H](OC6OC(CO)C(OC7OC(CO)C(O)C(OC8OC(CO)C(O)C(OC9OC(CO)C(O)C(O)C9O)C8O)C7OC7OC(CO)C(O)C(O)C7O)C(O)C6O)[C@H](O)C[C@]5(C)C4CC[C@]3(C)C1[C@@H]2C (some centres undefined),inactive: > 80.5 µM
20,Cc1cc(O)nc2c3c(ccc12)OC(C)(C)C=C3,inactive: 8.18 µM
21,CC[C@](O)(C(=O)O)c1cc2n(c(=O)c1CO)Cc1cc3ccccc3nc1-2,active: 0.581 µM
22,NS(=O)(=O)c1nnc(NC(=O)CCC(=O)O)s1,inactive: > 100 µM

# — ChEMBL document CHEMBL1201862, “PubChem BioAssay data set” (2004)
